Reference: PMC4336329 (PLoS ONE, 2015)
About 2,200 (0.71%) of roughly 310,000 compounds showed an effect of 50% or more. The effect is printed as a negative number. Some of the results follow.

Molecular target: human ether-à-go-go-related gene (hERG) potassium channel (human, UniProt Q12809)
Assay: primary screen, population patch clamp on CHO cells stably expressing hERG

Chain of human ether-à-go-go-related gene (hERG) potassium channel (Q12809 whole entry, looked up): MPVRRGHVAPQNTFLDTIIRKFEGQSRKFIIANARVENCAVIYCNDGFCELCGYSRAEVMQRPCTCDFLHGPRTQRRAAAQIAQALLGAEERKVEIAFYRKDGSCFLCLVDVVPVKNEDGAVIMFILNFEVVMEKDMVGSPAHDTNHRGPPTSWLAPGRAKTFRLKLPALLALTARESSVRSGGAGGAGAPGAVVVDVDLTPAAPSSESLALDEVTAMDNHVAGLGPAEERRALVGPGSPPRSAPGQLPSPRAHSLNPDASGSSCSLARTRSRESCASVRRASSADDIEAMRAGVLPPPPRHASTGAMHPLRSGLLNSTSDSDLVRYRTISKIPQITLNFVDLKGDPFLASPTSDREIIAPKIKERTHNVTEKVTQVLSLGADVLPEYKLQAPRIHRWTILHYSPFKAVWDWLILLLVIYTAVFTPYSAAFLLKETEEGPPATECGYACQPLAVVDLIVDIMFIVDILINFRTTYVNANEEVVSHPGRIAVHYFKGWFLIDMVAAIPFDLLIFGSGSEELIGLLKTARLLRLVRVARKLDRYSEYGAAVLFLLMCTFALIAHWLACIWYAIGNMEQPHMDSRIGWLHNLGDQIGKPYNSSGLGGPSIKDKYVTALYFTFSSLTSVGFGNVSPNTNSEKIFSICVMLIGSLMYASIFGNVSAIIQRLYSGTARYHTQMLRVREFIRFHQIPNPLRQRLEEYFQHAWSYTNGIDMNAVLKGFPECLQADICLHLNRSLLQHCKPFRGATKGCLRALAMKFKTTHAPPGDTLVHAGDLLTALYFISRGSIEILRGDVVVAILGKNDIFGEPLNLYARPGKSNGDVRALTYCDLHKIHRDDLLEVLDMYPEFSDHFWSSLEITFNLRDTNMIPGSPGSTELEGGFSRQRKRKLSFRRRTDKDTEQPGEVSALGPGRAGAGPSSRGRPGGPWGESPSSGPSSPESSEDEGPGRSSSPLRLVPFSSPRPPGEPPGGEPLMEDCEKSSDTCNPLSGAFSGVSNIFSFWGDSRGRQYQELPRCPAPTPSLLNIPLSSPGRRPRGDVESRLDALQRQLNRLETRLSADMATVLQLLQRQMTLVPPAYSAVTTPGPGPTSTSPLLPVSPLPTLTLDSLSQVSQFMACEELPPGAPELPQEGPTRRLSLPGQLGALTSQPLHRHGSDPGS

Row | SMILES | hERG current change (%, negative = inhibition) at 1uM [%]
1 | Cc1cccc(N2CCN(C(=O)Cn3c(=O)[nH]c4ccsc4c3=O)CC2C)c1 (centres unmarked) | 13
2 | CS(=O)(=O)Cc1ccc(C(=O)NC2CCCc3ccccc32)cc1 (centres unmarked) | 13.5
3 | CCCC(=O)N1CC(=O)Nc2ccc(F)cc2C1c1ccccc1 (centres unmarked) | 4.75
4 | Cc1cccc(C)c1NC(=O)c1ccc(-c2ccc(Cl)cc2Cl)o1 | -4.04
5 | Oc1ccc(Cl)cc1Cc1cc(Cl)ccc1O | 16.6
6 | CC(C)Cn1c(Cc2ccccc2)n[nH]c1=S | 12.3
7 | CC(C)CNC(=S)N1CCN(c2nc3ccccc3s2)CC1 | 18.5
8 | CCCCCOC(=O)NC1CCS(=O)(=O)C1 (centres unmarked) | -8.31
9 | Cc1ccccc1S(=O)(=O)Nc1nc2ccccc2nc1NCCO | 14.5
10 | CC(CCc1ccccc1)NC(=O)CSc1ccccc1 (centres unmarked) | 9.29
11 | O=C(NNc1ccccc1Br)C(=O)n1ccc2ccccc21 | -4.23
12 | CC(C)(C)c1cc(Br)ccc1OCC(=O)Nc1ncn[nH]1 | 14.8
13 | Cc1ccccc1N1CCN(S(=O)(=O)c2ccc3oc(=O)ccc3c2)CC1 | 11.3
14 | O=C(O)C(Cc1c[nH]c2ccccc12)NS(=O)(=O)c1cccc2nsnc12 (centres unmarked) | 1.76
15 | Cc1cc(C)n(CCNC(=O)C2CCC(=O)N(CC3CCCCC3)C2)n1 (centres unmarked) | 16.1
16 | O=C(NC1CCCC1)c1ccc(COc2ccccc2Br)o1 | 3.35
17 | O=C(c1ccccn1)N1CCN(S(=O)(=O)c2cccc(Br)c2)CC1 | 2.24
18 | NC1=NCC(O)=C1c1nc2ccccc2[nH]1 | 7.99
19 | Cc1cc(NC(=O)c2ccccc2O)nc(C)n1 | 16.2
20 | O=C(NC1CCN(C(=O)N2c3ccccc3Sc3ccccc32)CC1)c1ccccc1Cl | 3.25
21 | COc1ccc(CNC(=O)CCC(=O)c2ccc(C)cc2)cc1OC | 22.8
22 | COc1ccc(NC(=S)Nc2ccc(N)c([N+](=O)[O-])c2)cc1 | 15.6
23 | CC(=O)Nc1ccc(S(=O)(=O)N2CCc3cc4c(cc3C2)OCCCO4)cc1 | 14

Row | SMILES | hERG current change (%, negative = inhibition) at 1uM [%]
24 | CCOC(=O)/C=C(/C)N1N=C(c2ccc(OC)cc2)CC1c1cccc([N+](=O)[O-])c1 (centres unmarked) | 20.4
25 | CCN(CC)CCCn1c2c(c(SCC(=O)Nc3cc(OC)cc(OC)c3)nc1=O)CCC2 | -28.5
26 | CCOC(=O)N1C(=O)c2cc(OC)ccc2S1(=O)=O | 12.5
27 | Cn1c(=O)[nH]c(=O)c2c1nc(N/N=C/c1cccnc1)n2Cc1ccc(Cl)cc1 | 17.5
28 | CC(C)(CNC(=O)c1ccc([N+](=O)[O-])c(Cl)c1)CNC(=O)c1ccc([N+](=O)[O-])c(Cl)c1 | 6.69
29 | O=C(Nc1nnc(CCN2CCCCC2)s1)c1cccc(Cl)c1 | 0.306
30 | COCc1ccccc1C1=CC(=O)C[C@H](c2ccc(OC)cc2)C1 | 11.1
31 | CCCc1cc(C(=O)Nc2cccc([N+](=O)[O-])c2)cs1 | 4.31
32 | O=S(=O)(NCC(c1ccco1)N1CCN(c2ccc(F)cc2)CC1)c1ccc2c(c1)OCCO2 (centres unmarked) | 8.79
33 | COc1ccccc1Nc1nc(NCCO)nc(N)c1[N+](=O)[O-] | 10.6
34 | CCOC(=O)c1[nH]c2ccc(OC)cc2c1NS(=O)(=O)c1ccc(Cl)s1 | 18.7
35 | Cn1cccc1CNC(=S)Nc1ccccc1F | 11
36 | CCc1ccc(OCC(=O)N2CCN=C2c2ccccc2)cc1 | 3.19
37 | NC(=O)COc1ccc(-c2noc(COc3ccccc3[N+](=O)[O-])n2)cc1 | 6.51
38 | O=C(O)c1ccccc1N/N=C/C1=C(N2CCOCC2)C(=C\c2ccccc2)/CC1 | 11.5
39 | O=C(O)c1cc(-c2ccco2)nn1-c1cccc(Cl)c1 | -0.594
40 | O=C(NCCCn1ccnc1)c1cc(-c2ccc(Cl)cc2)nc2ccccc12 | -45.1
41 | S=C(NCCc1c[nH]c2ccccc12)NC1CCCCC1 | 1.46
42 | Cc1ccc(CNC(=O)Cn2c(=O)n(CC(=O)N3CCCCC3)c(=O)c3sccc32)cc1 | 14.8
43 | CCCCN(C(=O)c1cccc(-n2cccc2)c1)c1c(N)n(CCCC)c(=O)[nH]c1=O | 6.02
44 | CCOCCCNc1ncnc2c1nc1n2CCCC1 | 6.87
45 | O=C(Nc1nc(-c2ccccc2)c(C(=O)c2ccccc2)s1)c1ccc(S(=O)(=O)N2CCCC2)cc1 | 6.05
46 | CCN(c1ccc(OC)cc1)S(=O)(=O)c1nnc(NC(=O)COc2ccccc2)s1 | 14.8

Row | SMILES | hERG current change (%, negative = inhibition) at 1uM [%]
47 | O=C(N/N=C/c1ccc(-c2ccc([N+](=O)[O-])cc2)o1)C(O)c1ccccc1 (centres unmarked) | -0.457
48 | COc1ccc(Cc2nc(-c3ccc(Br)o3)no2)cc1OC | -3
49 | CCOC(=O)C1CCN(C(=O)c2oc3ccc4c(c3c2C)C(O)CC2(CCCCC2)O4)CC1 (centres unmarked) | 9.04
50 | Cn1c(SCC(=O)N/N=C/c2cccnc2)nnc1-c1ccccc1 | 14.8
51 | COc1ccc(OCC(=O)N2c3ccccc3CCc3ccccc32)cc1 | 15.9
52 | COc1cc(-c2nc3ccccc3c(=O)n2N)cc(OC)c1OC | 16.7
53 | CC(C)(C)c1ccc(-n2ncc3c2CCCC3NC(=O)c2ccncc2)cc1 (centres unmarked) | 2.75
54 | O=C(Nc1ccc(Br)cc1)c1ccco1 | 3.88
55 | COC(=O)c1n[nH]nc1-c1ccccc1 | -10.3
56 | COCOc1ccc(C2CC(=O)c3c(OCOC)cc(OCOC)cc3O2)cc1 (centres unmarked) | 9.9
57 | Cc1nn(Cc2ccc(Cl)cc2Cl)c(C)c1NC(=O)c1sc2ccccc2c1Cl | 9.61
58 | CCCN(CC(=O)Nc1ccccc1C)C(=O)COc1c(C)cccc1C | 5.9
59 | O=C(Nc1ccc2c(c1)COC2=O)c1ccc(Cl)c(Cl)c1 | 23.6
60 | CC1(C)Oc2ccc3ccc(=O)oc3c2/C(=C/NC2CCCCC2)C1=O | 11.9
61 | O=C1/C(=C\c2cc3c(cc2Cl)OCO3)N2CCC1CC2 | 12
62 | O=C1CCCCCCCCCC/C(=N\O)CCCO1 | 7.87
63 | Cc1cccc(CSc2nc3ccncc3n2CC(=O)Nc2cc(C)cc(C)c2)c1 | 11
64 | O=c1[nH]c(C2CCN(S(=O)(=O)Cc3ccccc3)CC2)nc2c1nnn2Cc1cccc(Cl)c1 | 10
65 | Cn1c(=O)n(CC(=O)O)c(=O)c2c1nc1n2CCS1 | -3.42
66 | CC(C)c1ccc(OCC(O)CN2CCCC2)cc1.Cl (centres unmarked) | 10.8
67 | CCOC(=O)N1CCN(C(=O)c2cn(CC)c3ccc(S(=O)(=O)N(C)C4CCCCC4)cc3c2=O)CC1 | 7.96
68 | O=C(Nc1ccccc1-c1ccccc1)C1CCCC1 | 4.23
69 | Cn1nc(C(C)(C)C)cc1C(=O)NCc1cc(F)cc2c1OCOC2 | 11.3

Row | SMILES | hERG current change (%, negative = inhibition) at 1uM [%]
70 | CCCCN(C(=O)Cn1nnc2ccccc21)C(C(=O)NCCOC)c1ccc(OC)cc1 (centres unmarked) | 6.23
71 | CC(=O)c1cnc2nc(SCc3ccc(Cl)cc3)nn2c1C | 8.86
72 | CC(C(=O)Nc1cc([N+](=O)[O-])ccc1Cl)N1CCN(c2ccccc2O)CC1 (centres unmarked) | 4.85
73 | CCOC(=O)C1CCCN(C(=O)CNC(=O)c2nn(-c3ccc(OC)c(Cl)c3)c(=O)c3ccccc23)C1 (centres unmarked) | 13.7
74 | CCOC(=O)c1c(C)[nH]c(C)c1S(=O)(=O)N1CCN(c2cccc(C)c2)C(C)C1 (centres unmarked) | 1.51
75 | O=C(c1cccs1)N1CCN(C23CC4CC(CC(C4)C2)C3)CC1 | -8.84
76 | CCCC(C)C(=O)NCc1ccncc1 (centres unmarked) | 16.2
77 | COc1ccc2sc(N3C(=O)CC(Cc4cccc(C)c4)C3=O)nc2c1 (centres unmarked) | -0.216
78 | CN(c1ccccc1C(=O)O)S(=O)(=O)c1ccc2c3c(cccc13)C(=O)N2 | 3.33
79 | Cc1ccc(C)c(N2CCN(CCN3CCCCC3)CC2)c1.Cl | 7.07
80 | O=C(Nc1ccncc1)C1c2ccccc2Oc2ccccc21 | 8.36
81 | S=C1Nc2cc(Cl)ccc2Sc2ccccc21 | 13.7
82 | O=C(Nc1cccc(OC(=O)N2CCOCC2)c1)N1CCOCC1 | 20.2
83 | Fc1ccc(CSc2nncn2NC/C=C/c2ccccc2)cc1 | 8.25
84 | CC1=CC(C)(C)N(S(=O)(=O)c2ccc(F)cc2)c2ccc(C)cc21 | 0.634
85 | NC(=O)c1ccc2c(c1)S(=O)(=O)c1ccccc1C2=O | 17.9
86 | CC(=O)n1cc([C@H]2C=C(C(=O)N3CCOCC3)O[C@@H](OCc3ccc(CO)cc3)C2)c2ccccc21 | -4.69
87 | Cc1ccc(NC(=O)C(C)Oc2ccccc2)cc1S(=O)(=O)N1CCCCCC1 (centres unmarked) | 9.52
88 | FCCCOc1ccc(CN2CCN(c3ccccc3F)CC2)cc1 | -7.45
89 | CCOC(=O)CSc1ccc(-c2nc3cc(C)c(C)cc3[nH]2)cn1 | 21.5
